Each structure is given as a SMILES string. Screen size: about 150,000 compounds; about 540 (0.36%) showed an effect of 50% or more. This is one part of the list.

The subject of the assay is Plasmodium falciparum. The assay can be described thus: Primary screen in NF54 nanoGlo assay, in single point, at 2uM, 72h; a lower Z score goes with more inhibition. It counts as functional, Erythrocyte. As to conditions: timepoint 72 hour.
On to `CCc1noc(Cn2c(=O)ccn(Cc3cccc(Br)c3)c2=O)n1`, for which the “% Inhibition” value was -5% and the Z score is on record as 0.73.

Turning to `C[C@H](CNC(=O)N1CC(O)C1)Cc1cccc2ccccc12`, the “% Inhibition” value is given as 1% and the Z score is given as -0.26.

Regarding `CC[n+]1c(C)n(C2CCCCC2)c2ccc(C(=O)OC)cc21`, the “% Inhibition” value amounted to 27% and the Z score turned out to be 0.03.

As to `Cc1cc(C(NC(C)c2ccccn2)C2CC2)ccc1F` (stereo not given), the “% Inhibition” value was -8% and the Z score was determined as 1.42.

For the compound `Cc1cc2c(cc1S(=O)(=O)CCC(=O)NCc1ccccc1)OCC(=O)N2`, the “% Inhibition” value was -10% and the Z score worked out at 1.57.

As to `O=C(NCc1cccc(Cl)c1)c1cn2ccncc2n1`, the “% Inhibition” value is recorded as -7% and the Z score is recorded as 1.06.

Take `CCC#CCN1CCC(CNC(=O)c2oc(C)nc2C)CC1`: the “% Inhibition” value is -1% and the Z score was 0.1.

As for `CN(CCNC(=O)CCc1cn(-c2ccccc2)nc1-c1ccc2c(c1)OCO2)C1CCCCC1`, the “% Inhibition” value was 63% and the Z score is -8.26.

Take `CN1CC(C)(O)C(O)(C#Cc2ccccc2)CC1c1ccccc1` (stereo not given): the “% Inhibition” value was 34% and the Z score is given as -3.89.

For `Cc1cc(-c2ccc(C(=O)N3C[C@H]4CN(C)C[C@H]4C3)cc2)c(Cl)cc1F`, the “% Inhibition” value is recorded as 6% and the Z score was -1.17.

With `CC1=Nc2ccccc2N=C(NC(=O)CN2CCCCCC2)[C@H]1c1ccccc1`, the “% Inhibition” value is given as -10% and the Z score was 1.34.

As for `CC(C)c1nn(C)cc1NC(=O)NCCN1CCC(C)(C)C1`, the “% Inhibition” value came to 1% and the Z score is given as -0.14.

As for `Cn1c(C2CC2)nc2cc(NC(=O)[C@@H]3CCCN3)ccc21`, the “% Inhibition” value is listed as 0% and the Z score is reported as -0.04.

Regarding `Cc1ccc(CN(C[C@H]2CCCO2)C(=O)COc2ccc(Cl)cc2C)o1`, the “% Inhibition” value is listed as -13% and the Z score was determined as 2.05.

`O=S(=O)(c1ccc2c(c1)CCO2)N1CCCN(C2CCC2)CC1`: the “% Inhibition” value is given as -21% and the Z score is 3.6.

As for `Nc1ccc(N2N=C(c3ccccc3)CC2=O)nc1`, the “% Inhibition” value is reported as -14% and the Z score was determined as 1.23.

For the compound `CC(C)N1CCc2nnc(C3CCN(C(=O)c4cccs4)CC3)n2CC1`, the “% Inhibition” value was 3% and the Z score is reported as -0.48.

On to `CC[C@H](C)NC(=O)c1ccn2c(-c3ccc(Cl)cc3)nnc2c1`, for which the “% Inhibition” value is on record as -3% and the Z score is 0.38.

For `Cc1ccc(N2C[C@@H](C(=O)Nc3cc(-c4noc(C5CC5)n4)sc3C)CC2=O)cc1`, the “% Inhibition” value was -8% and the Z score stood at 0.76.

As for `Cc1csc(CC2(O)CCN(C(=O)c3ccc(C)c(C)c3)CC2)n1`, the “% Inhibition” value was -1% and the Z score came to 0.21.

Regarding `COc1ccc(Cc2nc(-c3csc(C)n3)n(C)n2)cc1OC`, the “% Inhibition” value is on record as -8% and the Z score is on record as 1.01.

In the case of `OC[C@@H]1N[C@H](c2cccc(-n3cccn3)c2)[C@@H]2CN(c3ccccc3)C[C@@H]21`, the “% Inhibition” value is listed as -11% and the Z score is on record as 1.07.

Consider `Cc1n[nH]nc1C(=O)N1CCN(Cc2ccccc2)C(=O)C1`, for which the “% Inhibition” value is -26% and the Z score turned out to be 3.38.

As to `Cc1cc([C@H](C)NC(=O)N2CCC2)c(C)s1`, the “% Inhibition” value is recorded as 15% and the Z score is -1.78.

Regarding `CC1CCCC(C)N1C(=O)CN(CCO)Cc1ccsc1` (stereo not given), the “% Inhibition” value was 9% and the Z score is given as -1.01.

`Cc1nc(Cn2ncc3ccccc32)n(CCO)n1`: the “% Inhibition” value is 10% and the Z score is -1.42.

As to `CC(C)c1ccc(NS(=O)(=O)c2ccc(-c3[nH]ncc3C(=O)N3CCCCC3)o2)cc1`, the “% Inhibition” value came out at 3% and the Z score was -0.3.

Consider `Cn1ccnc1C1CCCCN1C(=O)CC1(c2ccccc2)CC(=O)N(Cc2ccncc2)C1=O` (stereo not given), for which the “% Inhibition” value is 5% and the Z score is -0.6.

Consider `O=C(c1cccc2c1CCCC2)N1CCC(O)(Cn2ccnn2)CC1`, for which the “% Inhibition” value worked out at 12% and the Z score was -1.65.

For `Cn1nncc1S(=O)(=O)NCCOC1CCCCCC1`, the “% Inhibition” value is recorded as -9% and the Z score is on record as 0.73.

On to `O=C(NC[C@H](CC1CC1)C(=O)O)c1ccc2ccncc2c1`, for which the “% Inhibition” value was -2% and the Z score amounted to 0.37.

Consider `CCn1cnnc1C[C@H]1CCCN(C(=O)NC2CCCC2)C1`, for which the “% Inhibition” value is listed as -5% and the Z score stood at 0.6.

On to `Cc1nccc(CNC(=O)c2cccc(-c3noc(C4CC4)n3)c2)n1`, for which the “% Inhibition” value is listed as -16% and the Z score was determined as 1.65.

Regarding `Cc1ccc(C(=O)N[C@H]2CCCNC2)cc1NC(=O)c1ccc(Br)cc1`, the “% Inhibition” value is 31% and the Z score is -3.96.

With `CNc1nc(NCCc2ccccc2)nc2ccccc12`, the “% Inhibition” value was 83% and the Z score is -8.48.

Turning to `Cc1cc(C)nc(O[C@H]2CC[C@H](NS(=O)(=O)c3c(C)noc3C)CC2)n1`, the “% Inhibition” value is reported as -6% and the Z score was 1.04.

Turning to `CCCNC(=O)c1nnn2c1c(=O)[nH]c1ccccc12`, the “% Inhibition” value worked out at 1% and the Z score was -0.27.

On to `CC[C@H](C)[C@@H](C(=O)NCCc1ccncc1)n1cnnn1`, for which the “% Inhibition” value is -1% and the Z score was 0.1.

`Cn1c(C[C@H]2CN(CC3CCCCC3)CC[C@H]2CC(=O)O)nc2ccccc21`: the “% Inhibition” value is recorded as -3% and the Z score turned out to be 0.48.

Regarding `COC[C@@H](O)CNC(=O)Cn1cc(Cl)c(C)n1`, the “% Inhibition” value was -4% and the Z score stood at 0.61.

On to `C[C@@H]1CN(Cc2cscn2)CCN1C(=O)OC(C)(C)C`, for which the “% Inhibition” value was 0% and the Z score is recorded as -0.06.

With `Cc1cccc(C(=O)N(CC2CCN(Cc3ccccc3F)CC2)C[C@H]2CCCO2)n1`, the “% Inhibition” value is listed as 9% and the Z score is given as -1.21.

With `Cc1ccc(CN(Cc2ccc(F)cc2)C(=O)CN(C2CCCCC2)S(=O)(=O)c2ccccc2)s1`, the “% Inhibition” value is on record as -14% and the Z score was determined as 1.45.

In the case of `O=C1NC(=O)[C@H](CC(=O)N2CCC3(CCC(=O)N(Cc4ccccc4)C3)CC2)N1`, the “% Inhibition” value is reported as -10% and the Z score was 1.48.

With `O=C(c1cnc2ccccc2n1)N1CCCN(C[C@H]2CCCO2)CC1`, the “% Inhibition” value turned out to be 1% and the Z score is listed as -0.16.

For the compound `Cc1onc(C2CCCCC2)c1C(=O)O`, the “% Inhibition” value is on record as -5% and the Z score is listed as 0.83.

Consider `c1csc(-c2ccn(Cc3nc(C4CC4)no3)n2)c1`, for which the “% Inhibition” value is given as -6% and the Z score was 0.63.

With `CC(C)c1cnc(NC(=O)c2ccc(N3CCCC3)nc2)s1`, the “% Inhibition” value is -15% and the Z score is listed as 2.31.

Regarding `O=C(CC1CCCCC1)NCc1cc(-c2cccs2)on1`, the “% Inhibition” value is -6% and the Z score came out at 0.83.

For `Cn1cc(-c2ccccc2CNC(=O)C2CN3CCCN2CC3)cn1` (stereo not given), the “% Inhibition” value was -29% and the Z score was determined as 3.43.

For the compound `Cc1cccc2c(N3CCC(N4CCCOCC4)CC3)ncnc12`, the “% Inhibition” value is -6% and the Z score came to 0.84.

`Cc1oc2ncn(C)c(=O)c2c1C(=O)N1CC(C)CC(C)C1` (stereo not given): the “% Inhibition” value is reported as -11% and the Z score worked out at 1.84.

`O=C1NCCN1C(=O)N[C@H]1CCn2nccc2C1`: the “% Inhibition” value is -9% and the Z score came to 1.47.

Take `O=C(CN1CC[C@H](Cc2ccncc2)C1)N1CCCc2ccccc21`: the “% Inhibition” value stood at 0% and the Z score is given as -0.05.

Regarding `Cc1ccc(S(=O)(=O)/N=C(/CN2CCOCC2)N2CCCN(S(=O)(=O)c3ccc(C)cc3)C2)cc1`, the “% Inhibition” value is -11% and the Z score is given as 1.38.

Source of the values: ChEMBL document CHEMBL4888484, “Replenishing the malaria drug discovery pipeline: Screening and hit evaluation of the MMV Hit Generation Library 1 (HGL1) against asexual blood stage Plasmodium falciparum ,using a nano luciferase reporter read-out” (2022).
